The subject of this data set is red blood cells. The data set can be described thus: K+ release from red blood cells. The following applies: relative to critical micelle concentration.

As to `COCCOCCOCCOCCOCCOCCNC(=O)[C@H]1[C@@H]2C[C@@H](O[C@@H]3O[C@H](C)[C@@H](O)[C@H](N)[C@@H]3O)/C=C/C=C/C=C/C=C/C=C/C=C/C=C/[C@H](C)[C@@H](O)[C@@H](C)[C@H](C)OC(=O)C[C@H](O)C[C@H](O)CC[C@@H](O)[C@H](O)C[C@H](O)C[C@](O)(C[C@@H]1O)O2` [Example II], the “concentration to release 50% of the K+ from red blood cells” value is “essentially at their critical micelle concentration”. To `COCCNC(=O)[C@H]1[C@@H]2C[C@@H](O[C@@H]3O[C@H](C)[C@@H](O)[C@H](N)[C@@H]3O)/C=C/C=C/C=C/C=C/C=C/C=C/C=C/[C@H](C)[C@@H](O)[C@@H](C)[C@H](C)OC(=O)C[C@H](O)C[C@H](O)CC[C@@H](O)[C@H](O)C[C@H](O)C[C@](O)(C[C@@H]1O)O2` [Example I] belongs “essentially at their critical micelle concentration”.

The values are drawn from US5606038A, “Amphiphilic polyene macrolide antibiotic compounds” (Competitive Technologies, Inc., priority 1995, dated 1997).
